This note sets out measurements from PMC4336329 (PLoS ONE, 2015).

Screen size: about 310,000 compounds; about 14,000 (4.5%) showed an effect of 50% or more. The effect is printed as a negative number. The list shows a part of the results.
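Further: peak tail current of the secondary pulse compared with the same well before compound.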

The target of this assay is human ether-à-go-go-related gene (hERG) potassium channel (human, UniProt Q12809). Kind of assay: primary screen, population patch clamp on CHO cells stably expressing hERG.
Chain of human ether-à-go-go-related gene (hERG) potassium channel (Q12809 whole entry, looked up): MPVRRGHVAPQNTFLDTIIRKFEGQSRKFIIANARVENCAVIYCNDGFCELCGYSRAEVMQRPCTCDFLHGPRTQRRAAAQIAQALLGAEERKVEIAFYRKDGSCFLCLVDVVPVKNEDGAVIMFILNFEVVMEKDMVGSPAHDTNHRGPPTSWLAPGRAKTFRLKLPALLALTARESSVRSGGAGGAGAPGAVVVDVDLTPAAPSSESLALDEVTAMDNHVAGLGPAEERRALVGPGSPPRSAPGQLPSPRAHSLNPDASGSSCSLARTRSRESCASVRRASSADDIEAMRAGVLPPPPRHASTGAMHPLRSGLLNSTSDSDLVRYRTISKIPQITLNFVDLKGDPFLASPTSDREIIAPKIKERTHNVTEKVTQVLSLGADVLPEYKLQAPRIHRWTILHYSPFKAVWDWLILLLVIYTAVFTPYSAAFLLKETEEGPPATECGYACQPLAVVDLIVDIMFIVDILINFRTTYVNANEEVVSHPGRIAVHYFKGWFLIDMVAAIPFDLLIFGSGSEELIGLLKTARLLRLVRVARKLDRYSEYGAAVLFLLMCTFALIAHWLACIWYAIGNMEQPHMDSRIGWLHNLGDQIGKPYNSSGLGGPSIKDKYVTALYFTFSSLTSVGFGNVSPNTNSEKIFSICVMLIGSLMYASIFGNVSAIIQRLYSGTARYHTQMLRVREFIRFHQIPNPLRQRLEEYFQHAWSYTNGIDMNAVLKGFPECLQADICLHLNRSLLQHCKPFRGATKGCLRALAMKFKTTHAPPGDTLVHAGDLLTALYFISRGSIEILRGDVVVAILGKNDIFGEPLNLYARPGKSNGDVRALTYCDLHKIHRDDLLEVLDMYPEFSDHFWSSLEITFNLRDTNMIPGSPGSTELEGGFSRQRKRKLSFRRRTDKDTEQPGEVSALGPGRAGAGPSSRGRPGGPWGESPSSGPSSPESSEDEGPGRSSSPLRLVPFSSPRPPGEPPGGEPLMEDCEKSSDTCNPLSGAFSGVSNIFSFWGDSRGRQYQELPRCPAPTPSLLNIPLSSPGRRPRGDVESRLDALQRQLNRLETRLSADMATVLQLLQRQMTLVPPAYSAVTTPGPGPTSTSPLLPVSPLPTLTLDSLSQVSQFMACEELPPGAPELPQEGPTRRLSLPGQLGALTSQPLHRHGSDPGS
Take `Cn1c2ccccc2c(=O)c2ccc(C#CC3(O)CCCCC3)cc21`: the “hERG current change (%, negative = inhibition) at 10uM” value is 1.63%.
Then `Cc1cccc(N2CC(C(=O)Nc3nnc(SCC(=O)NCC4CCCO4)s3)CC2=O)c1` (centres unmarked), with 7.97%; and `COc1cccc(C2=NOC(C(=O)Nc3cccnc3Cl)C2)c1` (centres unmarked), with 2.88%; and `CCc1ccc(NC(=O)CN2C(=O)COc3ccc(S(=O)(=O)N4CCCC4)cc32)cc1`, with 15.3%.
Then `CC1(C)C(c2cccs2)=[N+]([O-])C2(CCCCC2=O)N1O` (centres unmarked), with 21.1%; and `Cc1cccc(CS(=O)(=O)Cc2ccc(C(=O)NC3CCCCC3)o2)c1`, with -7%; and `Cc1cc(C)nc(NC2=NCC(=O)N2c2cccc(Cl)c2)n1`, with -13.7%.
Then `Cn1c(SCC(=O)Nc2ccc3cn[nH]c3c2)nnc1-c1cnccn1`, with -18.3%.
On to `O=C(O)c1cccc(Cn2c(Cl)c(/C=N/NC(=O)c3ccccc3Cl)sc2=O)c1`, for which the “hERG current change (%, negative = inhibition) at 10uM” value amounted to 14.5%.
Then `Cc1ccc2cc(CN(Cc3ccccc3)Cc3nnnn3C3CCCC3)c(=O)[nH]c2c1`, with -28.3%.
Then `FC(F)Sc1nc2ccccc2[nH]1`, with 12%; and `CCc1ccc(NC(=O)CC2C(=O)N(c3cccc(C)c3)C(=O)N2C2CC2)cc1` (centres unmarked), with -9.51%; and `CCCCn1c(SCC(=O)NC2CCS(=O)(=O)C2)nc2ccccc2c1=O` (centres unmarked), with -24.2%.
On to `O=C(CONS(=O)(=O)c1ccc(Cl)cc1)NCCNc1ncc(C(F)(F)F)cc1Cl`, for which the “hERG current change (%, negative = inhibition) at 10uM” value was determined as 25.9%.
Then `NNC(=O)CP(=O)(c1ccccc1)c1ccccc1`, with 6.79%; and `COc1ccc(N(Cc2ccc(N(C)C)cc2)C(=O)c2ccc(S(C)(=O)=O)cc2)cc1`, with 13.9%; and `COc1ccc(C(=O)/C=C/Nc2ccc(NC(C)=O)cc2)cc1OC`, with -12.6%.
For the molecule `CCOC(=O)c1c(C)n(CC(O)CN(CC)CC)c2cc(Br)c(OC)cc12.Cl` (centres unmarked), the “hERG current change (%, negative = inhibition) at 10uM” value is -26.9%.
For `CC(C)C[C@@H](COc1ccccc1)N1CCN(Cc2ccccc2)CCC1=O` the value was -35.4%; for `COc1ccc(Nc2nc(NCCCN3CCOCC3)nc(N)c2[N+](=O)[O-])cc1`, -22%; for `O=C(CSc1ccc(C(F)(F)F)cc1[N+](=O)[O-])Nc1ccccc1`, 2.76%.
Then `Cc1cc([N+](=O)[O-])nn1CC(=O)Nc1cnc2ccccc2c1`, with -81.1%.
As to `O=C(CSc1nc(=O)n2ccccc2n1)N1CCN(c2ccccc2)CC1`, the “hERG current change (%, negative = inhibition) at 10uM” value is listed as -27.7%.
For `Cc1ccc(Nc2nc(N)c([N+](=O)[O-])c(NCc3ccco3)n2)cc1` the value was -5.84%; for `O=c1c2c3c(sc2nc2sc(CN4CCCCC4)cn12)CCCC3`, 9.98%.
For `O=C(NCc1ccccn1)C1CC(c2ccc(F)cc2)=NO1` (centres unmarked) the value was 0.609%.
Then `COc1ccccc1C(=O)NC(=O)COC(=O)Cn1cnc2c1c(=O)n(C)c(=O)n2C`, with 3.54%; and `COc1ccc(-c2nn(C)c(=O)c3ccccc23)cc1NC(=O)COc1ccccc1`, with 1.5%.
For `COCCNC(=S)NC1CC2CCCC(C1)N2Cc1cccs1` (centres unmarked), the “hERG current change (%, negative = inhibition) at 10uM” value is on record as -26.7%.
For `CC(C1CC1)N(Cc1ccccc1)C(=S)Nc1ccccc1` (centres unmarked) the value was -27.8%; for `O=C(Nc1ccccc1F)Nc1ccccc1F`, 3.37%; for `Cc1cc(C)n(-c2ccc(C(=O)Nc3ccc4c(c3)OCO4)cc2)n1`, 3.19%.
Consider `O=[N+]([O-])c1cc(C(F)(F)F)ccc1N1CCCC(O)C1` (centres unmarked), for which the “hERG current change (%, negative = inhibition) at 10uM” value is -12.1%.
Then `Cc1cc(NC(=O)C2CC(=O)OC2c2ccccc2)no1` (centres unmarked), with 0.702%; and `CN(C)CCNS(=O)(=O)c1ccc(N2CCc3ccccc32)c([N+](=O)[O-])c1`, with -40.4%; and `Cc1ccsc1C(=O)NNC(=O)C1CCCCC1C(=O)O` (centres unmarked), with 1.79%.
Take `Cn1cc(-c2cccc(C(F)(F)F)c2)cc(C#N)c1=O`: the “hERG current change (%, negative = inhibition) at 10uM” value was -5.93%.
Take `CCOC(=O)c1cnc2ccc(Br)cc2c1NCCO`: the “hERG current change (%, negative = inhibition) at 10uM” value is on record as -9.88%.
Then `COc1ccc(C(=O)c2ccc(OC)c(OC)c2)cc1OC`, with 14.1%; and `CCCC(=O)Nc1ccc(C(=O)NNC(=O)c2ccccc2Br)cc1`, with 6.14%.
With `CCOC(=O)C1=C(C)N=c2s/c(=C\c3cc(OC)c(OC)c(OC)c3)c(=O)n2C1/C=C/c1ccccc1` (centres unmarked), the “hERG current change (%, negative = inhibition) at 10uM” value is -15.5%.
Then `Clc1ccc(Nc2cc(-c3ccccc3)nc3ncnn23)cc1`, with 28%; and `CCCCCn1c2c(c(=N)c3ccccc31)CCC2.I`, with -71.2%.
Then `CCOC(=O)c1sc(=NC(=O)CCS(=O)(=O)c2ccccc2)n(C)c1C`, with 8.29%.
